Source: publication PMC5489699
No constants are given. Whether binding was seen depends on the method and setting. Binding seen in cells or lysates may run through a third protein. Some entries that bind do so weakly or less than the wild type. For some of these results: Where a sequence is shown, tags or fusion partners need not be part of it.

T1: GST fusion of the isolated HECTD3 DOC domain (human) (UniProt Q5T447)
T1 sequence: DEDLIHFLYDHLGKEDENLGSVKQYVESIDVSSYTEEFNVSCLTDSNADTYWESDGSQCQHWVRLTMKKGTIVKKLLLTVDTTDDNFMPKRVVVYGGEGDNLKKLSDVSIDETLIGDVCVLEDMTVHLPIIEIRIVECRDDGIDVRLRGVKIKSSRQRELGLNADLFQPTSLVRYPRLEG

T2: eYFP-HECTD3 fusion protein (human) (UniProt Q5T447)
T2 sequence: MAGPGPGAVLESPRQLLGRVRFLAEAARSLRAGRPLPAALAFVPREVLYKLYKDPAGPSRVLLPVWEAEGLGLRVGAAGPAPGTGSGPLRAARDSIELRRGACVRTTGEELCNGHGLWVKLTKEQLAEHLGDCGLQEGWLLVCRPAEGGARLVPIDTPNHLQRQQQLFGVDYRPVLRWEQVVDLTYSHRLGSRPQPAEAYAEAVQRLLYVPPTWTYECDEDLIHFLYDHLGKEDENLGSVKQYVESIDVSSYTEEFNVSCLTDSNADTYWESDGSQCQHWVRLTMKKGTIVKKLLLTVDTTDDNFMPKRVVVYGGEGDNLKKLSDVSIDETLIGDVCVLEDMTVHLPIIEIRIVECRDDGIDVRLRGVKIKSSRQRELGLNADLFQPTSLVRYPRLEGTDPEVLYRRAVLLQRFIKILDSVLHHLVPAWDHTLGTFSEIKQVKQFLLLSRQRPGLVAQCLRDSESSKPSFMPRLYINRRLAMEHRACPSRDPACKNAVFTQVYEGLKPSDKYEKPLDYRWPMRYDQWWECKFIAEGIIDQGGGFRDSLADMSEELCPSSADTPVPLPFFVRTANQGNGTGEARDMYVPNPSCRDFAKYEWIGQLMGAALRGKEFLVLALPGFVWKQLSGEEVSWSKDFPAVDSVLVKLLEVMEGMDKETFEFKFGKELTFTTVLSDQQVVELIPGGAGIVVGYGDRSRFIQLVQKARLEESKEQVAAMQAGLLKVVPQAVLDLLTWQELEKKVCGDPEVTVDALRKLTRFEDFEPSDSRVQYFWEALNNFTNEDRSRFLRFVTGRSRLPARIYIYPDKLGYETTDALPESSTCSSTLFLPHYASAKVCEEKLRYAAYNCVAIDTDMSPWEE

T3: HECTD3-eYFP fusion protein (human) (UniProt Q5T447)
T3 sequence: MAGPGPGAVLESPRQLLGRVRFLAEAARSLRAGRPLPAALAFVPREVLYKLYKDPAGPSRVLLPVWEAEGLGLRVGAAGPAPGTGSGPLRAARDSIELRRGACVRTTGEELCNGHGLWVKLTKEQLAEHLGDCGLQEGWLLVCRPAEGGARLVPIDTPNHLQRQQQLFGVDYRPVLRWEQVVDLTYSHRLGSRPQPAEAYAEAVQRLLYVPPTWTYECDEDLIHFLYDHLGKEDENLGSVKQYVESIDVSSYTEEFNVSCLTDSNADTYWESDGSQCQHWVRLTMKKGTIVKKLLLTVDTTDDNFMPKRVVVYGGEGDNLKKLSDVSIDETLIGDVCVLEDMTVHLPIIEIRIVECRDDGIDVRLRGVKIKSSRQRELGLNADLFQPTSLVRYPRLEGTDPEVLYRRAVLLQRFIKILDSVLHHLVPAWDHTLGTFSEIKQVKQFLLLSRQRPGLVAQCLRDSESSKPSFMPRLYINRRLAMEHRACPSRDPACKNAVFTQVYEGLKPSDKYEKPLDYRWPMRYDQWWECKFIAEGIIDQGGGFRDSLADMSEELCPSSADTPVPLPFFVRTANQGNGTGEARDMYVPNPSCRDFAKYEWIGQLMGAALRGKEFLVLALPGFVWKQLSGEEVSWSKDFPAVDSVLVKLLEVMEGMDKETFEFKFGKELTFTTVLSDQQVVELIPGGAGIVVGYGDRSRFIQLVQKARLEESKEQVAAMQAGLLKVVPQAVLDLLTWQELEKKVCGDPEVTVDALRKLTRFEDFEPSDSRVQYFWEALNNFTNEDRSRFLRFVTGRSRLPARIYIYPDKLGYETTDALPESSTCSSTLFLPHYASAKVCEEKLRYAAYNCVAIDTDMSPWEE


Legend:
[1] = target: T1, GST fusion of the isolated HECTD3 DOC domain (human); experiment: co-IP; purified GST-DOC added to HEK293 lysate pretreated 120 min at 4°C with 0-3,200 nM AUY922; GST-Trap resin; western blots for endogenous CRAF and HSP90; only the target purified
[2] = target: T2, eYFP-HECTD3 fusion protein (human); experiment: co-IP; GFP-trap from HEK293 lines expressing eYFP-HECTD3, HECTD3-eYFP or eYFP; cells exposed to AUY922 for increasing times; western blots for HSP90, CRAF, CDC37
[3] = target: T3, HECTD3-eYFP fusion protein (human); experiment: as above
[4] = target: eYFP-CRAF fusion protein (full-length human CRAF with an N-terminal enhanced yellow fluorescent protein) (human) (UniProt P04049); experiment: co-IP; 60 μg purified His-HECTD3, GST-DOC or GST-HECT added to lysate of HEK293 cells expressing eYFP or eYFP-CRAF (25 mM HEPES pH 7.8, 0.5 mM EDTA, 150 mM NaCl, 10% glycerol, 0.5% Triton), 2 hr at 4°C; GFP-Trap resin; western blot with α-His or α-GST; only the binder purified
[5] = target: endogenous CRAF (human (endogenous in HEK293)) (UniProt P04049); experiment: proximity ligation; Duolink In Situ Red kit on fixed, permeabilised HEK293 cells (eYFP control in cells expressing eYFP); untreated or treated with AUY922 for 18 hr; foci per cell counted
[6] = target: eYFP-CRAF fusion protein (full-length human CRAF with an N-terminal enhanced yellow fluorescent protein) (human) (UniProt P04049); experiment: co-IP; eYFP-CRAF immunoprecipitated from HEK293 cells stably expressing it (with or without AUY922 treatment); western blot for endogenous HECTD3

binding [2] | binding [3] | binding [4] | Molecule | other results
binds | binds |  | endogenous CRAF (from UniProt P04049 1-648) | binding [1]: binds
 |  | binds | His6-tagged full-length HECTD3 (enzyme, UniProt Q5T447 1-861) MAGPGPGAVLESPRQLLGRVRFLAEAARSLRAGRPLPAALAFVPREVLYKLYKDPAGPSRVLLPVWEAEGLGLRVGAAGPAPGTGSGPLRAARDSIELRRGACVRTTGEELCNGHGLWVKLTKEQLAEHLGDCGLQEGWLLVCRPAEGGARLVPIDTPNHLQRQQQLFGVDYRPVLRWEQVVDLTYSHRLGSRPQPAEAYAEAVQRLLYVPPTWTYECDEDLIHFLYDHLGKEDENLGSVKQYVESIDVSSYTEEFNVSCLTDSNADTYWESDGSQCQHWVRLTMKKGTIVKKLLLTVDTTDDNFMPKRVVVYGGEGDNLKKLSDVSIDETLIGDVCVLEDMTVHLPIIEIRIVECRDDGIDVRLRGVKIKSSRQRELGLNADLFQPTSLVRYPRLEGTDPEVLYRRAVLLQRFIKILDSVLHHLVPAWDHTLGTFSEIKQVKQFLLLSRQRPGLVAQCLRDSESSKPSFMPRLYINRRLAMEHRACPSRDPACKNAVFTQVYEGLKPSDKYEKPLDYRWPMRYDQWWECKFIAEGIIDQGGGFRDSLADMSEELCPSSADTPVPLPFFVRTANQGNGTGEARDMYVPNPSCRDFAKYEWIGQLMGAALRGKEFLVLALPGFVWKQLSGEEVSWSKDFPAVDSVLVKLLEVMEGMDKETFEFKFGKELTFTTVLSDQQVVELIPGGAGIVVGYGDRSRFIQLVQKARLEESKEQVAAMQAGLLKVVPQAVLDLLTWQELEKKVCGDPEVTVDALRKLTRFEDFEPSDSRVQYFWEALNNFTNEDRSRFLRFVTGRSRLPARIYIYPDKLGYETTDALPESSTCSSTLFLPHYASAKVCEEKLRYAAYNCVAIDTDMSPWEE | 
 |  |  | HECTD3, full-length 97-kDa form, endogenous (protein, UniProt Q5T447 1-861) MAGPGPGAVLESPRQLLGRVRFLAEAARSLRAGRPLPAALAFVPREVLYKLYKDPAGPSRVLLPVWEAEGLGLRVGAAGPAPGTGSGPLRAARDSIELRRGACVRTTGEELCNGHGLWVKLTKEQLAEHLGDCGLQEGWLLVCRPAEGGARLVPIDTPNHLQRQQQLFGVDYRPVLRWEQVVDLTYSHRLGSRPQPAEAYAEAVQRLLYVPPTWTYECDEDLIHFLYDHLGKEDENLGSVKQYVESIDVSSYTEEFNVSCLTDSNADTYWESDGSQCQHWVRLTMKKGTIVKKLLLTVDTTDDNFMPKRVVVYGGEGDNLKKLSDVSIDETLIGDVCVLEDMTVHLPIIEIRIVECRDDGIDVRLRGVKIKSSRQRELGLNADLFQPTSLVRYPRLEGTDPEVLYRRAVLLQRFIKILDSVLHHLVPAWDHTLGTFSEIKQVKQFLLLSRQRPGLVAQCLRDSESSKPSFMPRLYINRRLAMEHRACPSRDPACKNAVFTQVYEGLKPSDKYEKPLDYRWPMRYDQWWECKFIAEGIIDQGGGFRDSLADMSEELCPSSADTPVPLPFFVRTANQGNGTGEARDMYVPNPSCRDFAKYEWIGQLMGAALRGKEFLVLALPGFVWKQLSGEEVSWSKDFPAVDSVLVKLLEVMEGMDKETFEFKFGKELTFTTVLSDQQVVELIPGGAGIVVGYGDRSRFIQLVQKARLEESKEQVAAMQAGLLKVVPQAVLDLLTWQELEKKVCGDPEVTVDALRKLTRFEDFEPSDSRVQYFWEALNNFTNEDRSRFLRFVTGRSRLPARIYIYPDKLGYETTDALPESSTCSSTLFLPHYASAKVCEEKLRYAAYNCVAIDTDMSPWEE | binding [5]: binds; binding [6]: binds
binds | binds |  | CDC37, kinase-specific co-chaperone, endogenous (protein, UniProt Q16543 1-378) MVDYSVWDHIEVSDDEDETHPNIDTASLFRWRHQARVERMEQFQKEKEELDRGCRECKRKVAECQRKLKELEVAEGGKAELERLQAEAQQLRKEERSWEQKLEEMRKKEKSMPWNVDTLSKDGFSKSMVNTKPEKTEEDSEEVREQKHKTFVEKYEKQIKHFGMLRRWDDSQKYLSDNVHLVCEETANYLVIWCIDLEVEEKCALMEQVAHQTIVMQFILELAKSLKVDPRACFRQFFTKIKTADRQYMEGFNDELEAFKERVRGRAKLRIEKAMKEYEEEERKKRLGPGGLDPVEVYESLPEELQKCFDVKDVQMLQDAISKMDPTDAKYHMQRCIDSGLWVPNSKASEAKEGEEAGPGDPLLEAVPKTGDEKDVSV | 
 |  | binds | GST fusion of the isolated HECTD3 DOC domain (domain or fragment, UniProt Q5T447 219-398) DEDLIHFLYDHLGKEDENLGSVKQYVESIDVSSYTEEFNVSCLTDSNADTYWESDGSQCQHWVRLTMKKGTIVKKLLLTVDTTDDNFMPKRVVVYGGEGDNLKKLSDVSIDETLIGDVCVLEDMTVHLPIIEIRIVECRDDGIDVRLRGVKIKSSRQRELGLNADLFQPTSLVRYPRLEG | 

Molecule | binding [2] | binding [3] | binding [4] | other results
GST fusion of the isolated HECTD3 HECT domain (domain or fragment, UniProt Q5T447 512-861) YEKPLDYRWPMRYDQWWECKFIAEGIIDQGGGFRDSLADMSEELCPSSADTPVPLPFFVRTANQGNGTGEARDMYVPNPSCRDFAKYEWIGQLMGAALRGKEFLVLALPGFVWKQLSGEEVSWSKDFPAVDSVLVKLLEVMEGMDKETFEFKFGKELTFTTVLSDQQVVELIPGGAGIVVGYGDRSRFIQLVQKARLEESKEQVAAMQAGLLKVVPQAVLDLLTWQELEKKVCGDPEVTVDALRKLTRFEDFEPSDSRVQYFWEALNNFTNEDRSRFLRFVTGRSRLPARIYIYPDKLGYETTDALPESSTCSSTLFLPHYASAKVCEEKLRYAAYNCVAIDTDMSPWEE |  |  | no binding (tested: 60 μg added to 300–500 μL lysate) | 
